Measured values reported in a compilation of properties of binary mixtures (doi:10.1016/j.molliq.2018.07.077).
Some of these densities may be calculated back from excess volumes.

Assay: xn = mol fraction of the nth substance listed
Details: 101 kPa

C[n+]1ccn(CCCC#N)c1.O=S(=O)([O-])C(F)(F)F + CC#N
mass density [kg/m3]
Details	x1 = 0.1002	x1 = 0.2002	x1 = 0.2994	x1 = 0.4006	x1 = 0.5	x1 = 0.6005	x1 = 0.698	x1 = 0.7996	x1 = 0.9007	x1 = 1
288.15 K	–	1135.6	–	1282.8	–	1364.2	1391.7	1415	1434.3	1449.2
293.15 K	1000.5	1130.7	1216.1	1278.2	1323.5	–	1387.4	1410.7	1430.2	1445
298.15 K	995.4	1125.9	1211.4	1273.7	1319	1355.3	1383	–	1425.9	1440.9
303.15 K	990.3	1121	1206.8	1269.1	1314.5	1350.9	1378.6	1402.1	–	–
308.15 K	985.3	1116.3	–	1264.6	1310.1	1346.5	1374.3	1397.9	1417.5	–
313.15 K	980.2	–	1197.3	1260	–	1341.9	1369.9	–	1413.4	1428.4
318.15 K	–	1106.5	1192.7	1255.3	–	1337.5	–	1389.3	–	1424.3
323.15 K	–	1101.7	1187.9	1250.8	1296.5	–	1361	1385	1404.9	1420

CC#N + C[n+]1ccn(CCCC#N)c1.O=S(=O)([O-])C(F)(F)F
x2 = 0
Details	mass density [kg/m3]
288.15 K	787.3
293.15 K	782
298.15 K	776.6
308.15 K	765.7
313.15 K	760.2
318.15 K	754.7
323.15 K	749.2
